Experimental data taken from PubChem BioAssay AID1569 (National Center for Advancing Translational Sciences (NCATS), 2009).
Inconclusive results, whose numbers are uncertain, are shown with a selection of clear calls. A potency beside an inconclusive call is a rough fit, not a confirmed value. The source made the active and inactive calls. Calls come from the whole dose curve; as a rule, active = well fitted inhibition curve with a large enough effect; inconclusive = small, poorly fitted or top-dose-only effect, or effect the other way, or another doubt; inactive = no such curve, though single readings can be large or run the other way.

Assay: Confirmation Concentration-Response Assay for lipid storage modulators; note: nearly all actives have a fitted effect of over 80% in size;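 for activity change, negative = inhibition: -100% = full block of lipid deposition by 20 µM Triacsin C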
Conditions: Drosophila S3 cells, lipid droplet BODIPY/CellTracker ratio, 18-24 h; activity change, negative = inhibition: at 46.1 µM (top of the series)
Outline: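 Cells at 5,000/well received compound as a titration plus oleic acid (added as 400 uM solution) and were incubated 18–24 h at 24 °C. BODIPY 493/503 lipid signal and CellTracker Red cell count were read by 488-nm laser-scanning cytometry. Activity was normalised to 20 uM Triacsin C.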
Potency is the fitted concentration of half-maximal effect; tags give direction and shape of the fitted curve.

Row | SMILES | Potency | activity change, negative = inhibition
1 | CC(C)n1c(-c2ccc(N(C)C)cc2)nc2ccccc21 | inconclusive: 7.91 µM [activator, full curve] | –
2 | Cc1ccc(-c2csc3nnc(SCC(=O)NCc4ccc5c(c4)OCO5)n23)cc1 | inconclusive: 4.99 µM [activator, partial curve, poor fit] | –
3 | O=C(Cc1cccs1)Nc1nc(-c2ccccc2)cs1 | inconclusive: 0.0996 µM [activator, full curve, poor fit] | –
4 | CN(C1=C(N2CCOCC2)C(=O)c2ccccc2C1=O)c1ccccc1 | active: 6.28 µM | –
5 | CCN(CC(=O)NC(=O)NC1CCCCC1)Cc1nc2ccccc2c(=O)[nH]1 | inconclusive: 1.41 µM [activator, partial curve] | –
6 | Cc1nn(CC(=O)NCCc2ccccc2)c(=O)c2cc3occc3n12 | inconclusive: 1.99 µM [activator, full curve] | –
7 | CC(=O)Nc1cccc(-c2nnc(-c3ccccc3)o2)c1 | inconclusive: 3.97 µM [activator, full curve] | –
8 | CCOC(=O)c1sc(NC(=O)CSc2nnc(Cc3ccccc3)o2)c(C(=O)OCC)c1C | inconclusive: 0.396 µM [activator, full curve] | –
9 | O=C(Nc1ccc2c(c1)OCCO2)c1ccc2nccnc2c1 | – | inconclusive: 235% [activator]
10 | Cc1cc(C)cc(-c2nc(-c3ccncc3)no2)c1 | inconclusive: 7.05 µM [activator, full curve] | –
11 | COc1cc(NC(=O)COc2ccccc2[N+](=O)[O-])ccc1NC(=O)c1cccs1 | active: 17.7 µM | –
12 | O=S(=O)(c1ccccc1C(F)(F)F)N1CCC(n2cnc3ccccc32)CC1 | active: 0.996 µM | –
13 | COC(=O)c1ccccc1NC(=O)c1ccc(NS(C)(=O)=O)cc1 | inconclusive: 3.53 µM [activator, full curve, poor fit] | –
14 | CC1=C(C(=O)NC2CCCc3c2cnn3-c2cccc(C)c2C)OCCO1 (centres undefined) | active: 0.0137 µM | –
15 | CCOC(=O)c1cc2sc(C)cc2n1CC(=O)N1CCc2ccccc21 | inconclusive: 2.81 µM [activator, full curve, poor fit] | –
16 | COCC(=O)Nc1c(C(=O)Nc2cccc(OC)c2)oc2ccccc12 | inconclusive: 0.315 µM [activator, full curve] | –
17 | COc1ccc(CCNC(=O)CCCCCNc2nc(=S)[nH]c3ccccc23)cc1OC | active: 2.5 µM | –
18 | CN1CCN(C(=O)c2cc(COc3c(F)cccc3F)on2)CC1c1ccccc1 (centres undefined) | inconclusive: 9.96 µM [activator, partial curve, poor fit] | –
19 | COc1ccc(NC(=O)C2=C(C)NC(=O)NC2c2cccc(OC)c2OC)c(OC)c1 (centres undefined) | inconclusive: 17.7 µM [activator, partial curve, poor fit] | –
20 | COc1ccc(CCNC(=O)c2cc(=O)c3ccc(C)cc3o2)cc1OC | inconclusive: 2.5 µM [activator, full curve] | –
21 | COc1ccc(CCNC(=O)C2CCCN2C(=O)NC2CCCCC2)cc1OC (centres undefined) | – | inconclusive: 31.3% [activator]
22 | COc1cccc(NC(=O)c2cnc(SCC(=O)NCc3ccc4c(c3)OCO4)n(C)c2=O)c1 | inconclusive: 2.23 µM [activator, full curve] | –
23 | O=S(=O)(NCC(c1cccnc1)N1CCN(c2ccccc2)CC1)c1cc(F)ccc1F (centres undefined) | inconclusive: 4.45 µM [activator, partial curve] | –
24 | Cc1cc(C)n2c(Nc3ccc4c(c3)OCCO4)c(-c3ccccc3)nc2n1 | – | inconclusive: 270% [activator]
25 | CN(C)c1ccc(-c2noc(C3CCN(S(=O)(=O)c4cccc(Cl)c4)CC3)n2)cc1 | inconclusive: 6.28 µM [activator, partial curve] | –
26 | Cc1ccccc1OCC(=O)Nc1cccc(N(C)S(C)(=O)=O)c1 | inconclusive: 1.99 µM [activator, full curve] | –
27 | Cc1cc(-c2nn3c(-c4ccccc4)nnc3s2)c2ccccc2n1 | inconclusive: 0.705 µM [activator, full curve] | –
28 | N#CC1=C(N)NC(SCC(=O)c2ccc(Br)cc2)=C(C#N)C12CCCCC2 | inconclusive: 3.97 µM [activator, partial curve] | –
29 | COc1ccc(C(=O)N2CCNC(=O)C2CC(=O)Nc2ccc(C)cc2)cc1 (centres undefined) | inconclusive: 14.1 µM [activator, partial curve, poor fit] | –
